Reference: the BET-seq Pho4 binding data (Le et al. 2018)
The list shows a part of the results. These are noisy estimates, calculated here from bound and input reads.

These sequences were tested against T1, Pho4 (S. cerevisiae) (UniProt P07270) (assay: relative binding free energy (BET-seq); higher = weaker binding). Conditions: reference: library average.
T1 sequence: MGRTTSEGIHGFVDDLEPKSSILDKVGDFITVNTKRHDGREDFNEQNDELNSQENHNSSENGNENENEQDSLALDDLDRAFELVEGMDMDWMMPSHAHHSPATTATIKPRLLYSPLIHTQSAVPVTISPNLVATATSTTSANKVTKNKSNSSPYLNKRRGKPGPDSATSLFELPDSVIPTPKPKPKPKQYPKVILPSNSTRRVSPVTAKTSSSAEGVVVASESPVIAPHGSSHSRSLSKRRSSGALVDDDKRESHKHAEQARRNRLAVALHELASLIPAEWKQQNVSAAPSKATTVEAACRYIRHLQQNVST

Sequence | relative binding free energy [kcal/mol]
ATGAGCACGTGATGTT | 0.04
AATGGCACGTGGGGCG | -0.35
CATAGCACGTGGTGGG | -0.07
CGGTTCACGTGGGTCG | 0.13
TCGTGCACGTGAGAGT | 0.21
TCCGTCACGTGGGGGT | -0.08
GTGGACACGTGTGATT | 0.16
ATATGCACGTGGTCGG | -0.2
TTTCGCACGTGGGTTT | -0.13
CTGGTCACGTGTGTGT | 0.05
GGGTTCACGTGCTTAG | 0.44
TGTTGCACGTGGCGTA | -0.03
ATAAACACGTGGGCTG | -0.04
CGTAACACGTGGGGTA | -0.27
GATGTCACGTGTGATT | 0.29
CTAATCACGTGGTAGG | 0.16
GGCGCCACGTGTCGGG | 0.11
TATAGCACGTGGATTT | 0
AGGGTCACGTGTTAAG | 0.17
TGGGCCACGTGGAAGG | -0.06
TTGTACACGTGGAAAC | 0.37
GCTGGCACGTGAGGAG | 0.1
TAGGACACGTGTGTGC | 0.04
CGGAGCACGTGGTGAT | -0.18
TAATTCACGTGTTGCT | 0.28

Sequence | relative binding free energy [kcal/mol]
TGGGGCACGTGGGCAC | -0.35
AGATCCACGTGTTTGT | 0.09
GTGGTCACGTGTGGCA | 0.23
GGGGGCACGTGTGTTA | -0.01
AGGCACACGTGCTTGG | 0.03
TGTATCACGTGAACTT | 0.15
GCTTGCACGTGAATGG | 0.21
GATATCACGTGAGGTC | 0.25
GGTTACACGTGTGGGA | 0.32
CGTGCCACGTGTAGGG | 0.02
ACTTGCACGTGGAGTG | -0.09
CTCGTCACGTGGTAGT | 0.03
GCAGTCACGTGGGGGA | 0.15
AGTGGCACGTGGCGTA | -0.21
TAATGCACGTGGGGTG | -0.21
TTAGTCACGTGCGTGC | -0.04
TCTGGCACGTGGAGTG | -0.09
GGCAGCACGTGCGGGT | -0.18
ATTACCACGTGATTGT | 0.1
AGTAGCACGTGGGTCA | -0.32
GTAGGCACGTGATCGT | 0.06
TTATGCACGTGAATCG | 0.23
ACGGTCACGTGAGTTT | 0.37
GTAGACACGTGTGCTG | -0.07
GGAGCCACGTGTGTAG | -0.15

Sequence | relative binding free energy [kcal/mol]
TTTTACACGTGTTTAT | 0.16
CGGTTCACGTGAGTAT | 0.44
TTGTTCACGTGTTTCC | 0.29
TACTTCACGTGTGTTA | 0.21
GTTGTCACGTGAGCGC | 0.36
GCATGCACGTGTCGGT | 0.07
TTTTTCACGTGAAATG | 0.5
CTTTGCACGTGACGGT | 0.01
GAAGACACGTGGGAGT | -0.13
TCTATCACGTGGGGAG | -0.1
TAATGCACGTGAAGGG | 0.22
GGTTTCACGTGATGCG | 0.35
TCGGTCACGTGCGGGA | 0.04
TTTTGCACGTGTAGAA | -0.03
CCGGGCACGTGGTAGT | -0.19
CGGTGCACGTGGGTCT | -0.02
TATTGCACGTGGCGTT | -0.15
TTCTGCACGTGTGCGG | 0.11
GGGAGCACGTGCATGG | -0.18
ATGTGCACGTGTTGTC | 0.07
GTGGGCACGTGTAGGA | 0.04
TTTCGCACGTGACGGG | 0.01
TTCAGCACGTGAGGAT | 0.24
GTGGTCACGTGTATGC | 0.08
GAAGGCACGTGTGCGG | -0.18

Sequence | relative binding free energy [kcal/mol]
AGTCGCACGTGATTGT | 0.09
GATTACACGTGGGGCT | 0
ATACGCACGTGGTTTA | -0.1
ATAATCACGTGAGTTG | 0.28
ATATTCACGTGCGCGT | 0.24
TGGAGCACGTGTCAGA | -0.04
ACTGGCACGTGCGTGG | -0.26
TTTGTCACGTGCCTGT | -0.02
ATTGACACGTGGCTTT | -0.18
TGTTTCACGTGAGCTG | 0.4
TTTAACACGTGTCTGA | -0.01
GGTAGCACGTGGTAAT | -0.16
GACGGCACGTGTGCGG | -0.14
ACTGGCACGTGGTTTA | -0.11
AAGTGCACGTGGTAAT | 0.02
AAGTGCACGTGCATTG | 0
GATTGCACGTGGGGTT | -0.08
TGAGTCACGTGGTGAA | 0.09
AAGGTCACGTGCAAGG | 0.15
AAGGGCACGTGATGGA | -0.05
TTCGTCACGTGTGGCT | 0.18
AAGCGCACGTGCGGGG | -0.21
TTAGTCACGTGCGGAA | 0.13
CTGGACACGTGGGGCT | -0.08
TTGGGCACGTGCCCGG | -0.3

Sequence | relative binding free energy [kcal/mol]
ATATACACGTGAGTTA | 0.2
ATGTACACGTGATATA | 0.17
TGTGTCACGTGTTTTT | 0.17
ATTATCACGTGTTAAG | 0.19
ACGTACACGTGGTAGG | 0.02
TCGGGCACGTGGAGTG | -0.07
GGAAACACGTGGGAGT | 0
AGGGACACGTGCATGG | 0.06
GTATTCACGTGGGGAT | 0.15
AGTTCCACGTGGAGTG | 0.1
GATGGCACGTGGACAG | -0.07
CTCTGCACGTGGGGGT | -0.14
GATGTCACGTGAGGCG | 0.22
TATCTCACGTGGAGGG | 0.23
TGTGGCACGTGTATCT | -0.14
GGTTTCACGTGCCGTT | 0.4
CGCGGCACGTGGATGT | -0.09
TGGATCACGTGTGGTG | 0.13
AATTGCACGTGCTGTA | -0.12
TCTAGCACGTGAGGTA | 0.18
CTATACACGTGGGTGT | -0.2
CAGTACACGTGGCGGG | -0.09
TCAGTCACGTGGCTGG | 0.06
AAAGGCACGTGTGTAT | 0.07
TGAGTCACGTGGCAGA | 0.15

Sequence | relative binding free energy [kcal/mol]
AGGGGCACGTGTTTGT | -0.09
ATTAACACGTGCTGTA | 0.04
GGTCTCACGTGGCTGG | 0.16
GACGACACGTGGGGGC | 0.12
TGTGACACGTGAGGTG | 0.16
TTTATCACGTGAGATG | 0.32
ATCAGCACGTGTTTTG | -0.07
ATGCTCACGTGTGGGA | 0.13
GTAGCCACGTGTATTT | 0.07
ATCTGCACGTGGAGTG | 0.12
GCTTACACGTGGCGTG | 0.16
GGGGTCACGTGCTTAT | -0.01
AACGGCACGTGGGGGA | -0.26
TGTGTCACGTGTCGAA | -0.01
GTAATCACGTGGAGGT | 0.27
CGTATCACGTGAGAGG | 0.27
TAGTGCACGTGAGGTT | 0.22
TTTCTCACGTGTAGGT | 0.26
GTAGTCACGTGTGTTG | 0.08
GTCAGCACGTGGTGTG | -0.05
GCTGTCACGTGGTGGC | 0.06
